Publication PMC5895073, “Cell polarity protein Spa2 coordinates Chs2 incorporation at the division site in budding yeast” (PLoS Genetics, 2018)
Like-named read-outs stand apart in the source and are kept apart here. These are yes or no findings as the source states them, for the method shown. For part of these data: In cells and extracts the contact can be indirect. Some entries that bind do so weakly or less than the wild type. For part of these data: Sequences can lack the tags named with a protein.

By UniProt entry, the sequences of proteins in these tests, tags left out.
UniProt P19524: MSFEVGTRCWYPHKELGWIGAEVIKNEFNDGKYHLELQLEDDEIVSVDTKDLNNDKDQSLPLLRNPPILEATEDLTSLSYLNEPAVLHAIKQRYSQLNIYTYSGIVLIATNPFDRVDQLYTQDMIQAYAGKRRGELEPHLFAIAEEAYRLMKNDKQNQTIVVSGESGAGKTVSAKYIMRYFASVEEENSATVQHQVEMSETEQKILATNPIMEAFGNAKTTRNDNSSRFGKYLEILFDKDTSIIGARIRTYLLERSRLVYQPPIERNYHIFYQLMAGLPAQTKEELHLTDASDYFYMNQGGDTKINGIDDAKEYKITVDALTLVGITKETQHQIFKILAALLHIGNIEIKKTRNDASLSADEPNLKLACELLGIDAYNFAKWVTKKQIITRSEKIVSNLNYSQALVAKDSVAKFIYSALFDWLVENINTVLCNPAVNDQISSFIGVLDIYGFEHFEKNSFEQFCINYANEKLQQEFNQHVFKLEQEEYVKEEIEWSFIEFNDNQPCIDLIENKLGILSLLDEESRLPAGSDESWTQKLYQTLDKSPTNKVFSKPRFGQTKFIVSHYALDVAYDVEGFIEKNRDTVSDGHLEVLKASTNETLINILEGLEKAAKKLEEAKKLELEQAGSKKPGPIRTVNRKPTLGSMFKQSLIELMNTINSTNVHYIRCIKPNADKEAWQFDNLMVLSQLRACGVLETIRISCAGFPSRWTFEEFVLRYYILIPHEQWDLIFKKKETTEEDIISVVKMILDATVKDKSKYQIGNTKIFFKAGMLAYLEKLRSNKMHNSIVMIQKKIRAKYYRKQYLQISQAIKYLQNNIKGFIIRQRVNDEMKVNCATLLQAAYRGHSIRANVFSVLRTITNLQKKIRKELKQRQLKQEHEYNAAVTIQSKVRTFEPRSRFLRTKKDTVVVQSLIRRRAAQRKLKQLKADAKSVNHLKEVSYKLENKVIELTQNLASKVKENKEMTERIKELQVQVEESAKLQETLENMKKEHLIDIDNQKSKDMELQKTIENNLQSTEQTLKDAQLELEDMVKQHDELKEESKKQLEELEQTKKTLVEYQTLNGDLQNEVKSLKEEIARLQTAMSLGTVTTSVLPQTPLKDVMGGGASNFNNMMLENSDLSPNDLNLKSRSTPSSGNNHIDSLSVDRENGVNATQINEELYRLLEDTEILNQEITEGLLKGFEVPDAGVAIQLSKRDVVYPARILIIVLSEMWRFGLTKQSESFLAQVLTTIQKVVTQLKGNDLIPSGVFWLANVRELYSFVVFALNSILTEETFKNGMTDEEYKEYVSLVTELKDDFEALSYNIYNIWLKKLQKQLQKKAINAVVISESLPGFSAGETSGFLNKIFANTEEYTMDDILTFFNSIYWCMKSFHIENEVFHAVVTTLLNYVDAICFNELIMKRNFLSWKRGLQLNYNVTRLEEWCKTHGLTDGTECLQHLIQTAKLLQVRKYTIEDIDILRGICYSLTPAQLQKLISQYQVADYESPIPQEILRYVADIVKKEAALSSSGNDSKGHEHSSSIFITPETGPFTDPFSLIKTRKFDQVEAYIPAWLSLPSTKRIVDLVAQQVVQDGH

Columns and labels:
[1] = biological target: TAP-Spa2 (S. cerevisiae) (UniProt P23201); experiment: co-IP; yeast cell extract of Hof1-depleted cells (hof1-td, YPGal, 37°C, 75 min after G1 release); TAP-Spa2 on IgG beads; immunoblot
[2] = biological target: TAP-Spa2 (S. cerevisiae) (UniProt P23201); experiment: co-IP; yeast cell extract of cells in cytokinesis (90 min after G1 release, YPD, 24°C; control cells of Fig 4C: 75 min, YPGal, 37°C); TAP-Spa2 on IgG beads; immunoblot
[3] = biological target: Spa2-1-145 (S. cerevisiae) (UniProt P23201); experiment: two-hybrid; vectors pGADT7 and pGBKT7; growth at 30°C on SC medium lacking leucine, tryptophan and histidine (selective), 3-4 days
[4] = biological target: T1, Strep-tag-Chs2-215-629 (S. cerevisiae) (UniProt P14180); experiment: pull-down; pairs of E. coli cultures mixed, one cell extract; Strep-tagged protein isolated on Strep-Tactin Superflow resin, eluted with 2.5 mM d-desthiobiotin; immunoblot with anti-Strep and anti-His
T1 sequence: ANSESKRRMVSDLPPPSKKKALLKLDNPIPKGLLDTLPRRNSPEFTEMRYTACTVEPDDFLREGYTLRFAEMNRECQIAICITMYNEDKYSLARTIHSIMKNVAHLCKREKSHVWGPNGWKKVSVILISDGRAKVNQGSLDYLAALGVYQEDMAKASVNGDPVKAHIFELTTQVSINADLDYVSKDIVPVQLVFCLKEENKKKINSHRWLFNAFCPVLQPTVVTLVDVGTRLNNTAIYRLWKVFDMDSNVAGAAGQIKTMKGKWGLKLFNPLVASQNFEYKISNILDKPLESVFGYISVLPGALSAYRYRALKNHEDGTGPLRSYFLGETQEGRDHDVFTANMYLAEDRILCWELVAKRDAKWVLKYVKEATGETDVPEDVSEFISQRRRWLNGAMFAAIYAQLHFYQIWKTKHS

[5] = biological target: T2, Strep-tag-Cyk3-SH3 (S. cerevisiae) (UniProt Q07533); experiment: as above
T2 sequence: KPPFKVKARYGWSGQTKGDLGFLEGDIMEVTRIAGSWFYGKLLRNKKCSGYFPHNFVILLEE

[6] = biological target: T3, Strep-tag-Hof1-1-300 (S. cerevisiae) (UniProt Q05080); experiment: as above
T3 sequence: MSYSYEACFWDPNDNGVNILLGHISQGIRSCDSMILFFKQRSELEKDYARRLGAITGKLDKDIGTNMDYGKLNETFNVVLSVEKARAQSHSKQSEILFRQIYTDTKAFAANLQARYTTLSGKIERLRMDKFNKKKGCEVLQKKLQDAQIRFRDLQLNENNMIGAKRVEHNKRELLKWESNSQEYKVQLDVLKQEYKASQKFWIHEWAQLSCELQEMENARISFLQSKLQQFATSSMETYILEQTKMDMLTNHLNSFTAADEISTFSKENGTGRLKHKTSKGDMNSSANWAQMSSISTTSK

[7] = biological target: T4, Strep-tag-SH3-Hof1 (S. cerevisiae) (UniProt Q05080); experiment: as above
T4 sequence: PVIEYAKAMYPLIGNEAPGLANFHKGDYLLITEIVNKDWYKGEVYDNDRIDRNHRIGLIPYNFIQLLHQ

[8] = biological target: TAP-Spa2 (S. cerevisiae) (UniProt P23201); experiment: co-IP; extract of asynchronous diploid cells TAP-SPA2/SPA2-5FLAG, YPD, 24°C; TAP-Spa2 on IgG beads; immunoblot
[9] = biological target: T5, Spa2-553-1466 (S. cerevisiae) (UniProt P23201); experiment: two-hybrid; vectors pGADT7 and pGBKT7; growth at 30°C on SC medium lacking leucine, tryptophan and histidine (selective), 3-4 days
T5 sequence: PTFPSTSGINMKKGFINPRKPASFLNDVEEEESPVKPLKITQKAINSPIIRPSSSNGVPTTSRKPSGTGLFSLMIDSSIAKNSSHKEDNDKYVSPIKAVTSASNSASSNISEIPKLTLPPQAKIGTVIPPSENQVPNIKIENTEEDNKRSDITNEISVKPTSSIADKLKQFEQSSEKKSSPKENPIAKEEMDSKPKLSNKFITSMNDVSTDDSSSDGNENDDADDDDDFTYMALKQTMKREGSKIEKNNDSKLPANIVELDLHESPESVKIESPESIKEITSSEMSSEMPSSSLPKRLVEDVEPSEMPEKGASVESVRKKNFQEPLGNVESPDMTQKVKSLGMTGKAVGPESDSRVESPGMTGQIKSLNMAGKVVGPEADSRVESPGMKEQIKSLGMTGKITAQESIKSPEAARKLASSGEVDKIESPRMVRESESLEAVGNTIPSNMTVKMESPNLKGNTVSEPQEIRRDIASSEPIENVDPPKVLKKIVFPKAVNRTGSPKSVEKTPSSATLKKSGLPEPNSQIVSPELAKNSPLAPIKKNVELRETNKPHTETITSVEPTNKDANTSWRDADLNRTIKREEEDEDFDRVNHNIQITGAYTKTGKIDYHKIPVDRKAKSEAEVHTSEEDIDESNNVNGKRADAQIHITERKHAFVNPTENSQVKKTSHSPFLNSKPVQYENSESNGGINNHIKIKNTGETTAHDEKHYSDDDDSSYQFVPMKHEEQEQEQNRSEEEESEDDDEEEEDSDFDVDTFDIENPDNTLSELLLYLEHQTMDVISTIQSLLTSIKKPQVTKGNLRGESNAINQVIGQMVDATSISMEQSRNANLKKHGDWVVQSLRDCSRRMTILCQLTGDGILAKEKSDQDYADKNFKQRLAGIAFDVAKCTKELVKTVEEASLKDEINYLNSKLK

[10] = biological target: Spa2-1-145 (S. cerevisiae) (UniProt P23201); experiment: as above; remark: listed apart in the source
[11] = biological target: Spa2-421-552 (S. cerevisiae) (UniProt P23201); experiment: as above
[12] = biological target: Strep-tag-Spa2-1-552 (S. cerevisiae) (UniProt P23201); experiment: pull-down; pairs of E. coli cultures mixed, one cell extract; Strep-tagged protein isolated on Strep-Tactin Superflow resin, eluted with 2.5 mM d-desthiobiotin; immunoblot with anti-Strep and anti-His

Myo2 (from UniProt P19524 1-1574) was tested, and the binding [1] was “binds” and the binding [2] was “binds”.

With “Spa2-421-552 (from UniProt P23201 421-552) (domain or fragment)” the binding [3] was “binds”.

“6His-Spa2-1-552 (from UniProt P23201 1-552) (domain or fragment)” was tested, and the binding [4] was “binds”, the binding [5] was “binds” and the binding [6] was “binds”. The binding [7] was “binds”.

With TAP-Spa2 (from UniProt P23201 1-1466) the binding [8] was “binds”.

B1: Chs2 (protein, UniProt P14180 1-963)
chain: MTRNPFMVEPSNGSPNRRGASNLSKFYANANSNSRWANPSEESLEDSYDQSNVFQGLPASPSRAALRYSPDRRHRTQFYRDSAHNSPVAPNRYAANLQESPKRAGEAVIHLSEGSNLYPRDNADLPVDPYHLSPQQQPSNNLFGSGRLYSQSSKYTMSTTSTTAPSLAEADDEKEKYLTSTTSYDDQSTIFSADTFNETKFELNHPTRQQYVRRANSESKRRMVSDLPPPSKKKALLKLDNPIPKGLLDTLPRRNSPEFTEMRYTACTVEPDDFLREGYTLRFAEMNRECQIAICITMYNEDKYSLARTIHSIMKNVAHLCKREKSHVWGPNGWKKVSVILISDGRAKVNQGSLDYLAALGVYQEDMAKASVNGDPVKAHIFELTTQVSINADLDYVSKDIVPVQLVFCLKEENKKKINSHRWLFNAFCPVLQPTVVTLVDVGTRLNNTAIYRLWKVFDMDSNVAGAAGQIKTMKGKWGLKLFNPLVASQNFEYKISNILDKPLESVFGYISVLPGALSAYRYRALKNHEDGTGPLRSYFLGETQEGRDHDVFTANMYLAEDRILCWELVAKRDAKWVLKYVKEATGETDVPEDVSEFISQRRRWLNGAMFAAIYAQLHFYQIWKTKHSVVRKFFLHVEFLYQFIQMLFSWFSIANFVLTFYYLAGSMNLVIKHGEALFIFFKYLIFCDLASLFIISMGNRPQGAKHLFITSMVILSICATYSLICGFVFAFKSLASGTESHKIFVDIVISLLSTYGLYFFSSLMYLDPWHMFTSSIQYFLTLPAFTCTLQIFAFCNTHDVSWGTKGSTQESKQLSKAIVVQGPDGKQIVETDWPQEVDKKFLEIKSRLKEPEFEESSGNEKQSKNDYYRDIRTRIVMIWMLSNLILIMSIIQVFTPQDTDNGYLIFILWSVAALAAFRVVGSMAFLFMKYLRIIVSYRNKVEGSGSWEVSKLDLPNVFHKKG
B1 was tested, and the binding [1] was “binds” and the binding [2] was “binds”.

B2: Hof1 (two-hybrid construct of Fig 5E) (protein, UniProt Q05080 1-669)
chain: MSYSYEACFWDPNDNGVNILLGHISQGIRSCDSMILFFKQRSELEKDYARRLGAITGKLDKDIGTNMDYGKLNETFNVVLSVEKARAQSHSKQSEILFRQIYTDTKAFAANLQARYTTLSGKIERLRMDKFNKKKGCEVLQKKLQDAQIRFRDLQLNENNMIGAKRVEHNKRELLKWESNSQEYKVQLDVLKQEYKASQKFWIHEWAQLSCELQEMENARISFLQSKLQQFATSSMETYILEQTKMDMLTNHLNSFTAADEISTFSKENGTGRLKHKTSKGDMNSSANWAQMSSISTTSKKTESYMDNIRKLSSQLKETENKRKLASIDKYEKPLPSPEVTMATQFRNSTPVIRNETKVVANPTLSLRSSPVQLQSNVDDSVLRQKPDKPRPIVGEEQLKPDEDSKNPDEKGLMVHKRNQSLSSPSESSSSNPTDFSHIKKRQSMESMTTSVSSMANSIDDSQRFAKSWNSSNRKRKSMSHLQVPSSASSRSDDGGRTPNSAHNLNEDDYNTRRDTSTSTILFKPPVAVRGTSRGHTHRQSMIMQDSSNPIEDALYEMERIQSSSKPGTKTGNIMDERGVVRDRGITVTLPIVTSEGFPVIEYAKAMYPLIGNEAPGLANFHKGDYLLITEIVNKDWYKGEVYDNDRIDRNHRIGLIPYNFIQLLHQGL
For B2, the binding [9] was “binds”.

B3: Chs2-215-629 (two-hybrid) (domain or fragment, UniProt P14180 215-629)
chain: ANSESKRRMVSDLPPPSKKKALLKLDNPIPKGLLDTLPRRNSPEFTEMRYTACTVEPDDFLREGYTLRFAEMNRECQIAICITMYNEDKYSLARTIHSIMKNVAHLCKREKSHVWGPNGWKKVSVILISDGRAKVNQGSLDYLAALGVYQEDMAKASVNGDPVKAHIFELTTQVSINADLDYVSKDIVPVQLVFCLKEENKKKINSHRWLFNAFCPVLQPTVVTLVDVGTRLNNTAIYRLWKVFDMDSNVAGAAGQIKTMKGKWGLKLFNPLVASQNFEYKISNILDKPLESVFGYISVLPGALSAYRYRALKNHEDGTGPLRSYFLGETQEGRDHDVFTANMYLAEDRILCWELVAKRDAKWVLKYVKEATGETDVPEDVSEFISQRRRWLNGAMFAAIYAQLHFYQIWKTKHS
With B3 the binding [10] was “binds” and the binding [11] was “binds”.

B4: 6His-Cyk3-475-885 (domain or fragment, UniProt Q07533 475-885)
chain: ARYSTVLEKLRGIYIFCTEMFALTDDNGTSDFSAEPQNLEKILYRKHCTPYELTWLFKKLANSLGITCEIVIGFLKTPSAINWEFKYNHCWLRILVNKEWRFIDVILGNVTNPIHEFVNNRKIKKAENSYFLMAPLEMIYTHIPPREFEQHIVPSIDQLSALYLPLVFPSFFKNELKLYKFSTALSFLEDSEIYECSLEIPNDVEVFASVVIPTDNEEASSAYRNMELALTQIKKQKAESGRRIALIKAVLPPNVNKGSLYIHSGVRGTQTSIANIHPLSMMVPLTHKGSNMKYEFVIKIPSESIQKIELYIVEPQSRYLFVGNEYSFEVIQSPSDGIVYSSDEGPNQNRKQPMAIKSPSGRVHELVKSDPHFPYGTWKGSIKIKEPGVWSALVIADSGIGWSVFAEWLCV
For B4, the binding [12] was “binds”.

B5: 6His-tagged-Inn1 (natural protein, S. cerevisiae, UniProt P53901 1-409, looked up)
chain: MSEEVWNGNQGILSVYVSKARDLPNLNKLDKQNVMLRLRIAHMTRASNTLHRAGQNPVFHYLEKFDITPEIKPLMYVEVYCDRRKKSPLPIGRCEIDLLNAIRADPKEGYCTWYELKRSGDEFAGTIFIELTFTPKVPRLNRDDLNKEMDRLDSSMAMRPIPPLPTESEYDYVHGSTMRQITPQCVSTSHEDKDEGQPYRNGNVFSMSSKSDTAVLANSNDPIILPPTFSASMGTTSTLETNDTAISNTSNTKFHFANLRKLKEKINIFKNPDSSTNNCQNESNKVDIEALQKAIGVTSLSYDEDDDDDDENDAFYSSSHRVSHNYNQPPLPPIPTRDDMSNYSSSRNTPLVRRDRPSRLDSSSPNSHPHPSGLNSPKLPPLPTTSNSNFNSRKNSMSPTRKRPPPRLS
notes: Inn1, S. cerevisiae; also called 6His-Inn1; source: E. coli Rosetta, in cell extract
In the case of B5, the binding [4] is reported as “binds”.
